# Data from a collection of fitness landscapes (doi:10.1126/science.1257360).
# Some of the results follow.
# B1: PhoQ; a variant is named by its letters at X, in order, P23837 (parent)
# chain: MKKLLRLFFPLSLRVRFLLATAAVVLVLSLAYGMVALIGYSVSFDKTTFRLLRGESNLFYTLAKWENNKLHVELPENIDKQSPTMTLIYDENGQLLWAQRDVPWLMKMIQPDWLKSNGFHEIEADVNDTSLLLSGDHSIQQQLQEVREDDDDAEMTHSVAVNVYPATSRMPKLTIVVVDTIPVELKSSYMVWSWFIYVLSANLLLVIPLLWVAAWWSLRPIEALAKEVRELEEHNRELLNPATTRELTSLVRNLNRLLKSERERYDKYRTTLTDLTHSLKTPLXXLQXXLRSLRSEKMSVSDAEPVMLEQISRISQQIGYYLHRASMRGGTLLSRELHPVAPLLDNLTSALNKVYQRKGVNISLDISPEISFVGEQNDFVEVMGNVLDNACKYCLEFVEISARQTDEHLYIVVEDDGPGIPLSKREVIFDRGQRVDTLRPGQGVGLAVAREITEQYEGKIVAGESMLGGARMEVIFGRQHSAPKDE
# Variants of: B1
# Test: enrichment ratio after two sorts for PhoP signalling (ratio (wild type AVST 3.29)); higher = more functional
# Conditions: with PhoP (E. coli)
row,Variant,enrichment ratio
1,HYRA,≤ 0.25
2,ITMY,≤ 0.25
3,MYED,≤ 0.25
4,DCKK,≤ 0.25
5,YCGV,≤ 0.25
6,TVCR,0.605
7,MHGW,≤ 0.25
8,IRPT,≤ 0.25
9,DFAR,≤ 0.25
10,VHDP,≤ 0.25
11,VFSM,≤ 0.25
12,RMIL,≤ 0.25
13,SCEQ,≤ 0.25
14,KVNG,≤ 0.25
15,EMYT,≤ 0.25
16,TCGN,1.87
17,NPES,≤ 0.25
18,AITY,3.48
19,VYIH,≤ 0.25
20,KAWS,≤ 0.25
21,RFPT,≤ 0.25
22,IRAK,≤ 0.25
23,ESHF,≤ 0.25
24,MRHR,≤ 0.25
25,ENHS,≤ 0.25

row,Variant,enrichment ratio
1,NGCS,≤ 0.25
2,NYQS,≤ 0.25
3,SHMC,≤ 0.25
4,FDMY,≤ 0.25
5,SGCP,≤ 0.25
6,QRHT,≤ 0.25
7,DHVL,≤ 0.25
8,VHFA,≤ 0.25
9,DQHW,≤ 0.25
10,QHIF,≤ 0.25
11,IWMN,≤ 0.25
12,RAWY,≤ 0.25
13,VYVT,≤ 0.25
14,PYRW,≤ 0.25
15,QCSQ,≤ 0.25
16,VAHS,≤ 0.25
17,DCTR,≤ 0.25
18,GCCA,≤ 0.25
19,TETC,24.3
20,ALHY,≤ 0.25
21,AHTV,≤ 0.25
22,MCFA,≤ 0.25
23,QADR,≤ 0.25
24,AECT,5.83
25,NRAS,≤ 0.25

row,Variant,enrichment ratio
1,WQCT,≤ 0.25
2,PVTM,≤ 0.25
3,FRYT,≤ 0.25
4,PPFW,≤ 0.25
5,KEFK,≤ 0.25
6,YFSQ,≤ 0.25
7,YATC,≤ 0.25
8,INAC,≤ 0.25
9,DPMW,≤ 0.25
10,FIAL,≤ 0.25
11,VPWW,≤ 0.25
12,MDED,≤ 0.25
13,GHST,≤ 0.25
14,ALRS,≤ 0.25
15,LGGD,≤ 0.25
16,WFFE,≤ 0.25
17,YEPF,≤ 0.25
18,WLAH,≤ 0.25
19,VRDW,≤ 0.25
20,VARA,≤ 0.25
21,VNTW,≤ 0.25
22,FPEG,≤ 0.25
23,ALWR,≤ 0.25
24,RTFH,≤ 0.25
25,QGAC,9.98

row,Variant,enrichment ratio
1,INWG,≤ 0.25
2,GKKE,≤ 0.25
3,DHQV,≤ 0.25
4,AGGI,12.9
5,DQFW,≤ 0.25
6,DMFN,≤ 0.25
7,YHFF,≤ 0.25
8,NLRT,≤ 0.25
9,HYVM,≤ 0.25
10,WDQV,≤ 0.25
11,PNKK,≤ 0.25
12,NHVL,≤ 0.25
13,IDAK,≤ 0.25
14,TLHN,≤ 0.25
15,YQGV,≤ 0.25
16,QYFK,≤ 0.25
17,YCWS,≤ 0.25
18,LDIT,≤ 0.25
19,MYIK,≤ 0.25
20,DFFC,≤ 0.25
21,YCPT,≤ 0.25
22,TNIV,≤ 0.25
23,RYMD,≤ 0.25
24,PVTI,≤ 0.25
25,NVCC,≤ 0.25

row,Variant,enrichment ratio
1,HFPG,≤ 0.25
2,TTWK,≤ 0.25
3,WKCW,≤ 0.25
4,MMAL,13.5
5,HSED,≤ 0.25
6,TMQL,12.8
7,GPGR,≤ 0.25
8,ILGF,≤ 0.25
9,ARSG,≤ 0.25
10,NQCP,≤ 0.25
11,THKV,≤ 0.25
12,FATA,≤ 0.25
13,TQQR,≤ 0.25
14,IDRV,≤ 0.25
15,TMDF,≤ 0.25
16,PNEP,≤ 0.25
17,ANME,≤ 0.25
18,DVSD,≤ 0.25
19,IAQR,≤ 0.25
20,IVYK,≤ 0.25
21,GDCF,≤ 0.25
22,DSYF,≤ 0.25
23,WLKH,≤ 0.25
24,TEQA,13.7
25,QRGW,≤ 0.25

row,Variant,enrichment ratio
1,AQDI,≤ 0.25
2,MQYS,6.75
3,LKSI,≤ 0.25
4,NCMF,≤ 0.25
5,QQTM,≤ 0.25
6,PQTD,≤ 0.25
7,LYVM,≤ 0.25
8,DPNN,≤ 0.25
9,VERM,≤ 0.25
10,GKCW,≤ 0.25
11,MDCK,≤ 0.25
12,YVMN,≤ 0.25
13,AHVG,3.51
14,WPSQ,≤ 0.25
15,PTIY,≤ 0.25
16,FCME,≤ 0.25
17,LYWH,≤ 0.25
18,GPAI,≤ 0.25
19,AWSV,≤ 0.25
20,SWTR,≤ 0.25
21,IDRE,≤ 0.25
22,DWQR,≤ 0.25
23,RAVE,≤ 0.25
24,FCPT,≤ 0.25
25,NKKH,≤ 0.25

row,Variant,enrichment ratio
1,VIPQ,≤ 0.25
2,TAGE,≤ 0.25
3,PFFE,≤ 0.25
4,PRVY,0.875
5,FHEL,≤ 0.25
6,QSDN,6.63
7,LIGD,≤ 0.25
8,DGRP,≤ 0.25
9,YCIV,≤ 0.25
10,FYIS,≤ 0.25
11,SNLP,0.256
12,EYKL,≤ 0.25
13,HNCI,≤ 0.25
14,ARAR,≤ 0.25
15,VCFF,≤ 0.25
16,TDFA,≤ 0.25
17,SGYS,0.357
18,EYQG,≤ 0.25
19,IVKL,≤ 0.25
20,HLKI,≤ 0.25
21,KFWL,≤ 0.25
22,TYIF,≤ 0.25
23,DMRQ,≤ 0.25
24,HVSI,≤ 0.25
25,HNYD,≤ 0.25

row,Variant,enrichment ratio
1,FNEF,≤ 0.25
2,WSEG,≤ 0.25
3,RGSV,≤ 0.25
4,PLNV,≤ 0.25
5,ERVM,≤ 0.25
6,GQFF,≤ 0.25
7,SLKV,≤ 0.25
8,GMFH,≤ 0.25
9,PLWM,≤ 0.25
10,DHCF,≤ 0.25
11,VMGG,≤ 0.25
12,MATG,≤ 0.25
13,HGRG,≤ 0.25
14,LQIT,≤ 0.25
15,DTKI,≤ 0.25
16,RGCQ,≤ 0.25
17,ECPH,≤ 0.25
18,QANN,8.36
19,SLAK,2.88
20,IREP,≤ 0.25
